In all, about 370,000 compounds went through this assay and about 150 (0.041%) were called active. The shares of active, inactive and inconclusive entries below differ from those in the screen. Calls come from the whole dose curve; as a rule, active = well fitted inhibition curve with a large enough effect; inconclusive = small, poorly fitted or top-dose-only effect; inactive = flat fitted curve, though single readings scatter. No potency is given beside an inconclusive call; the fits are too rough.
The compounds below were run against Beta-lactamase (Escherichia coli (strain K12)) (UniProt P00811) (assay: qHTS Inhibitors of AmpC Beta-Lactamase (assay with detergent)). Details: AmpC hydrolysis of nitrocefin, absorbance 480 nm, 0.01% Triton; activity change, negative = inhibition: at 114 µM (top of the series).
Method in brief: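 AmpC (5.3 nM in the dispensed reagent) in 20 mM phosphate pH 7.0 with 0.01% (detergent screen) or 0.0001% Triton X-100 was preincubated with compounds for 15 min at room temperature. Nitrocefin was then added from an 800 uM solution, and hydrolysis was followed at 480 nm.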
Note: nearly all actives have a fitted effect of over 25% in size.
Potency is the fitted concentration of half-maximal effect; tags give direction and shape of the fitted curve.
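Throughout, for activity change, negative = inhibition: 0% = no-compound wells and -100% = no-enzyme wells.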

Sequence of UniProt P00811 (P00811 whole entry, looked up): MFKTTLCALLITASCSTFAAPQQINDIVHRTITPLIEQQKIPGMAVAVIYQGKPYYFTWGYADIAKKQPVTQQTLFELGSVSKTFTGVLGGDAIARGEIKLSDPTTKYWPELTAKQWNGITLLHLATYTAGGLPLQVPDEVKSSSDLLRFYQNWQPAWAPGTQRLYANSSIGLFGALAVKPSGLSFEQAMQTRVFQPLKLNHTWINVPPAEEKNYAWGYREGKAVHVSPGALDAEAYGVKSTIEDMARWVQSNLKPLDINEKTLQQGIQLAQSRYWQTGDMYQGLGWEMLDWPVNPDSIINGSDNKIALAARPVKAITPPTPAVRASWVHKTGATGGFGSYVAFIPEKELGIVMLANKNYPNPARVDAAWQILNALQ

| Structure (SMILES) | Potency | activity change, negative = inhibition |
| --- | --- | --- |
| Cc1ccc(NC(=O)CSc2nc3ncc(Cl)cc3[nH]2)c(C)c1 | inconclusive [inhibitor, full curve, poor fit] | – |
| CN(C(=O)c1cccc(C(F)(F)F)c1)C1CCCc2ccccc21 (configuration not stated) | inconclusive [inhibitor, full curve, poor fit] | – |
| CCCCn1cc(S(=O)(=O)c2ccc(OCC)cc2)c(=O)c2cc(OC)c(OC)cc21 | – | inactive: 0.326% |
| Cc1cc(O)c(NC(=O)c2ccc(Br)o2)cc1C | – | inactive: -9.54% |
| CCOc1ccccc1N(C)S(=O)(=O)c1ccc2c(c1)CC(C)N2C(=O)C1CC1 (configuration not stated) | – | inactive: -0.64% |
| C[N+](C)(C)CCOC(N)=O | inconclusive [inhibitor, full curve] | – |
| COC(=O)c1cccc(NC(=O)N(C)CCc2c(C)nn(C)c2C)c1 | – | inactive: -5.79% |
| Fc1ccc(Nc2nc(N3CCOCC3)nc(N3CCOCC3)n2)cc1 | – | inactive: -3.15% |
| CCN(CC)CCCNC(=O)C1CCN(C(=O)c2oc3cc4sc(N(C)C)nc4cc3c2C)CC1 | inconclusive [inhibitor, full curve, poor fit] | – |
| COc1ccc(C(=O)OCC(=O)NC(=O)NC2CCCC2)c(OC)c1 | inconclusive [inhibitor, partial curve] | – |
| O=C(CN(Cc1ccccc1)S(=O)(=O)c1ccccc1)N/N=C/c1ccccc1[N+](=O)[O-] | inconclusive [inhibitor, partial curve, poor fit] | – |
| Cc1oc2c(c1C(=O)Nc1cccc(C(=O)O)c1)CCCC2 | inconclusive [inhibitor, partial curve, poor fit] | – |
| O=C(CCNC(=O)c1ccc(Br)cc1)NCCCc1ccccc1 | inconclusive [inhibitor, partial curve] | – |
| CCOC(=O)CSc1nc(N)c2c3c(sc2n1)CCCC3 | inconclusive [inhibitor, single point] | – |
| O=C(CCN1C(=O)/C(=C/c2ccc(F)cc2)SC1=S)NNC(=O)c1cccnc1 | – | inconclusive: -17.4% [inhibitor] |
| O=C(Nc1nnc(C2CC2)s1)C1CC(=O)N(c2ccc3c(c2)OCCO3)C1 (configuration not stated) | – | inactive: -3.38% |
| Cc1nc([N+](=O)[O-])c(Br)n1CC(=O)c1ccc(Cl)cc1 | inconclusive [inhibitor, full curve, poor fit] | – |
| COc1ccc(N2CCN(C(=O)COC(=O)c3ccc(Cl)nc3)CC2)cc1 | – | inactive: 2.58% |
| CNc1ncnc2ccc(-c3c(C)noc3C)cc12 | – | inactive: -2.18% |
| Cc1ccc(C)c(NC(=O)CCS(=O)(=O)c2cccc3nsnc23)c1 | inconclusive [inhibitor, full curve, poor fit] | – |
| COc1ccc(OC)c2c1sc(=NC(=O)c1ccco1)n2C | inconclusive [inhibitor, full curve, poor fit] | – |
| CSc1nc2ccc3nc(NC(=O)C4COc5ccccc5O4)sc3c2s1 (configuration not stated) | inconclusive [inhibitor, full curve, poor fit] | – |
| CC1=NOC(=O)/C1=C\c1ccc(-c2ccc(Cl)cc2Cl)o1 | – | inactive: -10.4% |

| Structure (SMILES) | Potency | activity change, negative = inhibition |
| --- | --- | --- |
| CC(=O)N1CC=C2C(C#N)=C(N)C(C#N)(C#N)C(CCc3ccccc3)C2C1 (configuration not stated) | – | inactive: -6.74% |
| Nn1c(SCC(=O)Nc2c(Cl)cccc2Cl)nncc1=O | inconclusive [inhibitor, full curve] | – |
| CC(C)c1ccccc1NC(=S)NC1CCCCC1 | inconclusive [inhibitor, full curve, poor fit] | – |
| COc1cccc(-n2nc(C(N)=O)c(O)cc2=O)c1 | – | inactive: 0% |
| Cc1ccc2cc(C#N)c(SCC(=O)NCc3ccco3)nc2c1 | inconclusive [inhibitor, partial curve, poor fit] | – |
| COc1ccc(NS(=O)(=O)c2cccc(-c3n[nH]c(=S)n3Cc3ccccc3)c2)cc1 | inconclusive [inhibitor, single point] | – |
| CCOc1cc(C2C(C(=O)Nc3ccccc3)=C(C)Nc3ncnn32)cc(Br)c1O (configuration not stated) | – | inactive: 0.694% |
| CC(NC(=O)c1ccccc1F)c1nnc(SCC(=O)Nc2nnc(C3CC3)s2)n1C (configuration not stated) | inconclusive [inhibitor, partial curve, poor fit] | – |
| COCc1cc(S(=O)c2ccc(Cl)cc2)nc(C)n1 (configuration not stated) | inconclusive [inhibitor, partial curve, poor fit] | – |
| Cc1ccc(C(=O)OCC(=O)NCc2ccc3c(c2)OCO3)s1 | inconclusive [inhibitor, full curve, poor fit] | – |
| CCOC(=O)c1ccc2[nH]cc(C(C)=O)c(=O)c2c1 | – | inactive: -11.3% |
| CCCN1Cc2cccc(C(=O)Nc3ccc(CN4CCCC4)cc3)c2C1=O | inconclusive [inhibitor, partial curve, poor fit] | – |
| COc1ccc2[nH]c3c(c2c1)CCN1C(=O)N([C@@H](C)C(=O)NCc2ccccc2OC)C(=O)[C@]31C | inconclusive [inhibitor, full curve, poor fit] | – |
| Cc1ccc(S(=O)(=O)N(CC(=O)NCc2ccccc2Cl)C(=O)N2CCN(C)CC2)cc1 | inconclusive [inhibitor, full curve, poor fit] | – |
| COCCCN(C(=O)CCOc1ccc(C(C)(C)C)cc1)c1c(N)n(Cc2ccccc2)c(=O)[nH]c1=O | inconclusive [inhibitor, partial curve, poor fit] | – |
| COc1ccc(-c2[nH]ncc2CN(C)C(C)c2ccon2)c(OC)c1 (configuration not stated) | inconclusive [inhibitor, single point] | – |
| Cc1ccccc1OCC(=O)NC1=NCCS1 | – | inactive: -15.6% |
| CCOP(=O)(Cc1cc(C#N)oc1C)OCC | inconclusive [inhibitor, partial curve, poor fit] | – |
| CN(C)Cc1ccccc1Sc1ccc(Br)cc1 | inconclusive [inhibitor, partial curve] | – |
| CCn1c(SCC(=O)NC2CCCCC2C)nnc1-c1ccc(OC)cc1 (configuration not stated) | inconclusive [inhibitor, partial curve, poor fit] | – |
| Cc1c(NS(=O)(=O)CC23CCC(CC2=O)C3(C)C)c(=O)n(-c2ccccc2)n1C (configuration not stated) | inconclusive [inhibitor, partial curve, poor fit] | – |
| Cc1cccc(N2CCN(C(=O)CCCn3c(=O)[nH]c4ccsc4c3=O)CC2)c1C | – | inactive: 0.182% |
| CCCC1CCC(c2ccc(C(N)=O)cc2)CC1 (configuration not stated) | inconclusive [inhibitor, full curve, poor fit] | – |

| Structure (SMILES) | Potency | activity change, negative = inhibition |
| --- | --- | --- |
| Cc1c(C(=O)Nc2ccc3oc(-c4cccnc4)nc3c2)oc2ccccc12 | inconclusive [inhibitor, full curve, poor fit] | – |
| CN(C(=O)Cn1c(=O)n(CCC(=O)NCc2ccc3c(c2)OCO3)c(=O)c2sccc21)c1ccccc1 | – | inactive: 18.8% |
| COc1ccc(NC(=O)CN(C)C(=O)c2ccc(-c3ccccc3Cl)o2)cc1 | inconclusive [inhibitor, full curve, poor fit] | – |
| COc1cccc(C(C(=O)NCC2CCCO2)N(C(=O)Cn2nnc3ccccc32)c2ccc(NC(C)=O)cc2)c1OC (configuration not stated) | inconclusive [inhibitor, full curve, poor fit] | – |
| Cc1ccc(S(=O)(=O)N2CCCC(c3nc(-c4ccc(C)o4)no3)C2)cc1 (configuration not stated) | – | inactive: -13.4% |
| c1ccc(CCNc2nnnn2-c2ccccc2)cc1 | inconclusive [inhibitor, single point] | – |
| Cc1nc2nc(C)c(NS(=O)(=O)c3ccc(F)cc3)c(=O)n2[nH]1 | – | inactive: 14.6% |
| Cc1cc(C)cc(NC(=S)N2CCN(C(=O)c3ccco3)CC2)c1 | inconclusive [inhibitor, full curve, poor fit] | – |
| CN(CC(=O)Nc1cccc(F)c1)C(=O)C1CCN(S(=O)(=O)c2ccc3c(c2)OCCO3)CC1 | – | inactive: 2.28% |
| CCOC(=O)N1CCN(C(=O)c2cc(COc3cccc(C(C)=O)c3)on2)CC1 | – | inactive: -3.15% |
| CC(=O)OC(C(=O)n1nc(C)cc1C)c1ccccc1 (configuration not stated) | inconclusive [inhibitor, partial curve] | – |
| O=C(NCC1COc2ccccc2O1)Nc1ccccc1F (configuration not stated) | inconclusive [inhibitor, full curve] | – |
| O=C(Nc1cc(S(=O)(=O)N2CCOCC2)ccc1O)c1ccc2c(c1)S(=O)(=O)c1ccccc1C2=O | inconclusive [inhibitor, partial curve] | – |
| c1ccc(CSc2n[nH]c(-c3ccco3)n2)cc1 | inconclusive [inhibitor, full curve] | – |
| CCOC(=O)c1ccc(S(=O)(=O)Nc2ccccc2-c2nnn(CC)n2)cc1 | inconclusive [inhibitor, full curve, poor fit] | – |
| CS(=O)(=O)Nc1ccccc1C(=O)O | inconclusive [inhibitor, single point] | – |
| COc1ccc(N2C(=O)CC(Nc3cccc(C(C)=O)c3)C2=O)cc1OC (configuration not stated) | – | inactive: 1.13% |
| COC(=O)c1ccc(N2CCN(CCNC(=O)Nc3ccc(OC)cc3)CC2)cc1 | inconclusive [inhibitor, full curve, poor fit] | – |
| O=C(Nc1cccc(NC(=O)c2cncc(Br)c2)c1)c1cncc(Br)c1 | inconclusive [inhibitor, full curve, poor fit] | – |
| CCOC(=O)c1cc2c(=O)n3ccccc3nc2n(CCCOC)c1=NC(=O)c1c(-c2ccccc2Cl)noc1C | – | inactive: -4.74% |
| CC(C)Cn1c(=O)c(C(=O)Nc2ccccc2S(N)(=O)=O)c(O)c2ccccc21 | inconclusive [inhibitor, full curve, poor fit] | – |
